# Assay results published in paper PMC4336329 (PLoS ONE, 2015).
# Hit rate of the full screen: of about 310,000 compounds, about 2,200 (0.71%) showed an effect of 50% or more. Effects have a minus sign here. The list shows a part of the results.
# Molecular target: human ether-à-go-go-related gene (hERG) potassium channel (human, UniProt Q12809)
# Test: primary screen, population patch clamp on CHO cells stably expressing hERG
# Sequence of human ether-à-go-go-related gene (hERG) potassium channel (Q12809 whole entry, looked up): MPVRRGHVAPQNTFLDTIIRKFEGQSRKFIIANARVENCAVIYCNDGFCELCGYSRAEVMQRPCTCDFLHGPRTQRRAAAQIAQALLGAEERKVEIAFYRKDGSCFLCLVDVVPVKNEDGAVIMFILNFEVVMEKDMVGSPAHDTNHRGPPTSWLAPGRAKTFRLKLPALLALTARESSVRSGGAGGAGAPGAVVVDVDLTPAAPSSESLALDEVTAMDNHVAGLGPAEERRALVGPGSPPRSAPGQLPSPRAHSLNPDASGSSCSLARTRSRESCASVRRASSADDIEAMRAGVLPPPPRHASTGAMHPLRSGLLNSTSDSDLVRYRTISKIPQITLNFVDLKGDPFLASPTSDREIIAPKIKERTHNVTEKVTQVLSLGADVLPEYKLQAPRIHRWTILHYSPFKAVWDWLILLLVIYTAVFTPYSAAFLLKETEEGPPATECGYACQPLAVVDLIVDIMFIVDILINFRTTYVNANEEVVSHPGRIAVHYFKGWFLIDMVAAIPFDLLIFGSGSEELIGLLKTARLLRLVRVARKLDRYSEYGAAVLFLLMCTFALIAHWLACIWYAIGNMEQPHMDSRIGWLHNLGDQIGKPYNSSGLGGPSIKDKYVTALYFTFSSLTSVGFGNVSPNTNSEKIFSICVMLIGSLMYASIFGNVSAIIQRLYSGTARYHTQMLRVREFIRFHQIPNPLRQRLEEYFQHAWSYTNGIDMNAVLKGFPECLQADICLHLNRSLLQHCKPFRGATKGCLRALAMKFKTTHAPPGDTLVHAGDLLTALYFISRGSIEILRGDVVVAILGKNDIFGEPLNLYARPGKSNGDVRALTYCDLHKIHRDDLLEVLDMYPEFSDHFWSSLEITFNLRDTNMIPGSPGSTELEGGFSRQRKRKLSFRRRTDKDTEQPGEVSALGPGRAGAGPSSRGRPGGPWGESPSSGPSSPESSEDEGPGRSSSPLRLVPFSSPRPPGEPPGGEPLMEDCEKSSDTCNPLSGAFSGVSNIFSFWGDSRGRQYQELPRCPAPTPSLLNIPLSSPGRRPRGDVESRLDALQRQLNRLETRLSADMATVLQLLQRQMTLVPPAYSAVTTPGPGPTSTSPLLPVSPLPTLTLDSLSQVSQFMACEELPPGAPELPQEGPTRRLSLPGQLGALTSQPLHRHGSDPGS
row,Compound,"hERG current change (%, negative = inhibition) at 1uM [%]"
1,Cc1ccc(OCC(=O)Nc2nc(C)c(Cl)cc2Cl)c([N+](=O)[O-])n1,7.99
2,CC(=O)N(/N=C1\Sc2ccccc2C1=O)c1ccc(C)cc1C,13.4
3,NC(=O)c1nsc(C(=O)N(c2ccccc2)C(C(=O)NC2CCCC2)c2ccncc2)c1N (stereo not drawn),20.6
4,CCc1c(C)nc(SCC(=O)Nc2c(C)n(C)n(-c3ccccc3)c2=O)[nH]c1=O,-5.61
5,O=C(NCc1cccnc1)C(=O)Nc1nc(-c2ccccc2)cs1,1.73
6,Cl.Nc1c2c(nc3ccccc13)CCCC2,-12.6
7,O=C(COC(=O)c1nn(-c2ccccc2C(F)(F)F)cc1O)c1ccc(OC(F)F)cc1,15.6
8,Cc1cc(C(=O)COC(=O)c2cc(Cl)ccc2N)c(C)n1Cc1ccco1,13.2
9,COc1ccccc1/C=C/C(=O)Nc1ccc2c(c1)CCC2,-1.7
10,Cc1cc(Cl)cc(Cl)c1OCCCCN(C)C.O=C(O)C(=O)O,9.47
11,O=C(CCSCc1ccccc1F)NCc1ccc(F)cc1,-0.0557
12,CC1CCN(C(=S)c2ccc(N(C)C)cc2)CC1,10.6
13,O=C(NCCC(=O)N1CCCC(C(F)(F)F)C1)c1ccccc1Cl (stereo not drawn),12.9
14,CCN1CCN(c2ccc(S(=O)(=O)N3CCCCC3)cc2NC(=O)COc2cc(C)ccc2Cl)CC1,10.2
15,C/C(=N/NC(=O)c1ccn(C)n1)c1ccncc1,11.4
16,COc1ccc(N(CC(=O)NCCSc2ccc(C)cc2)S(=O)(=O)c2ccccc2)c(OC)c1,15.9
17,CS(=O)(=O)c1nc(S(=O)(=O)c2ccc(Cl)cc2)c(NCCN2CCOCC2)s1,10.7
18,COC(=O)C1=C(c2ccc(OC)c(OC)c2)C[C@@H]2CC[C@H]1N2C(=O)NCCOc1ccccc1,10.5
19,O=C(O)CCCCCn1c(SCC(=O)c2ccc(O)c(O)c2)nc2ccsc2c1=O,9.99
20,Cc1cccc(NC(=O)c2ccc(S(=O)(=O)N(C)CC3CCCO3)cc2)c1C (stereo not drawn),7.8
21,CCC(=O)NC(Nc1c(C)n(C)n(-c2ccccc2)c1=O)C(Cl)(Cl)Cl (stereo not drawn),13.7
22,COc1ccc(C(=O)NCCSC2CCCCC2)cc1,4.88

row,Compound,"hERG current change (%, negative = inhibition) at 1uM [%]"
1,Cc1cc(CO)nn1-c1ccc([N+](=O)[O-])cc1,17.9
2,Cc1ccc(NCC(=O)c2ccccc2)cc1Cl,13.7
3,Cc1sc2ncnc(SC(C)C(=O)N3c4ccccc4Sc4ccccc43)c2c1C (stereo not drawn),6.01
4,Cc1[nH]c(C)c(S(=O)(=O)N2CCN(c3cccc(C(F)(F)F)c3)CC2)c1C(=O)N1CCCC1,19.9
5,COc1ccc(NC(=O)C2CC(c3c(F)cccc3Cl)=NO2)cc1 (stereo not drawn),6.39
6,COc1ccc(NC(=O)N2CCN(c3ccc([N+](=O)[O-])cc3)CC2)cc1,-14.2
7,COC(=O)c1nc(Cl)c(Cl)c(N)c1Cl,6.62
8,CCCCCCC1CC(CSc2ncn[nH]2)OC1=O (stereo not drawn),-1.78
9,CCN1C(Nc2ccccc2)=NC[C@@H]1CC(C)C,10.1
10,COC(=O)CSc1nnc(CNc2ccc(OC)cc2)n1C,11.5
11,COc1ccc2cc(CN(CCCN3CCOCC3)Cc3nnnn3C3CCCCC3)c(=O)[nH]c2c1,-0.0035
12,CCc1ccc(/C=C2/SC(=S)N(CCC(=O)NCCCN3CCOCC3)C2=O)cc1,-9.04
13,Cc1cc(=O)oc(C)c1C(=O)Nc1ccc2ncccc2c1,0.128
14,O=C(NC1CCCCCC1)c1cc2n(n1)C(C(F)(F)F)CC(c1ccco1)N2 (stereo not drawn),12.3
15,COc1ccc(-c2[nH]ncc2CN(C)C(C)c2ccon2)c(OC)c1 (stereo not drawn),12.9
16,COc1ccccc1OCC(O)Cn1c(=N)n(Cc2ccccc2)c2ccccc21.Cl (stereo not drawn),-39.6
17,Cc1nc2sc(C(c3ccc(Cl)cc3)N3CCN(C(=O)c4ccco4)CC3)c(O)n2n1 (stereo not drawn),-19
18,COC(=O)C1=C(C(=O)OC)[C@@H]2N(C)c3ccccc3[C@@]23C[C@@H](CO)N(C(=O)NCCBr)C3=N1,5.14
19,Cc1[nH]c2ccc(C(=O)N3CCN(Cc4ccccc4)CC3)cc2c1C,0.829
20,CCOc1ccc(Br)cc1S(=O)(=O)Nc1cccc(S(=O)(=O)N(CC)CC)c1,9.48
21,COc1ccc(CCCc2nc3ccccc3[nH]2)cc1,3.86
22,CC(=O)C1=C(C)NC(=O)NC1c1cccc(O)c1 (stereo not drawn),9.2

row,Compound,"hERG current change (%, negative = inhibition) at 1uM [%]"
1,CCCc1nc(C)c(-c2ccc(OC)c(OC)c2)c(=O)[nH]1,3.9
2,Cc1[nH]c2ccccc2c1C(=O)CN1CCC2(CC1)OCCO2,-2.64
3,C(=N\n1cnnc1SCc1ccccc1)/c1ccco1,4.88
4,COc1ccc(OC)c(C(=O)NC(CC(N)=O)c2ccc(NC(C)C)c([N+](=O)[O-])c2)c1 (stereo not drawn),-23.4
5,Cc1ccc(-n2c(O)c(/C=N/Nc3ccccc3)c(=O)[nH]c2=O)cc1C,9.94
6,CCOC(=O)C1=C(C)OC(N)=C(C#N)C1c1cc(C)sc1C (stereo not drawn),-13.1
7,Cc1c(=O)n(OCc2ccccn2)c2ccccc2[n+]1[O-],17.4
8,Cc1ccc(NC(=O)c2cccc(NC(=O)CCC(=O)O)c2)cc1C,18.6
9,CC(C)(Oc1ccc(Cl)cc1)C(=O)O,13.9
10,Cc1ccc(NC(=O)Cn2nnc3ccccc32)cc1,14.4
11,CC(=O)NS(=O)(=O)c1ccccc1,11.4
12,COc1ccc2c(CC(=O)OCC(=O)Nc3ccc4c(c3)OCO4)coc2c1,-2.17
13,COc1cccc(CN2CCNC(=O)C2CC(=O)NCc2cc(C(C)C)no2)c1 (stereo not drawn),15.4
14,CCOc1ccc(C(=O)/C=C/c2ccc(OC)c(OC)c2)cc1,8.99
15,Cn1cccc1Cc1nnc(SCC(=O)Nc2ccc3c(c2)OCO3)n1-c1ccc(F)cc1,8
16,CC(=O)c1ccc(NC(=O)CCC(=O)N2CC(C)Oc3ccc(C)cc32)cc1 (stereo not drawn),4.65
17,CC(=O)N1CC(=O)N(c2ccccc2)C1=O,15
18,CCCCC(C(=O)NC1CCCC1)N(Cc1ccco1)C(=O)Cn1nnc(-c2ccc(F)cc2)n1 (stereo not drawn),-1.41
19,CCOC(=O)c1ccc2c(c1)sc(=NC(=O)c1ccco1)n2CCOC,6.89
20,CCOC(=O)c1ccccc1NC(=O)c1cccc2c1C(=O)N(C1CCN(C(=O)OCC)CC1)C2,-14.5
21,CCN(CC)S(=O)(=O)c1ccc(OCC(=O)NCc2ccco2)cc1,3.18
22,O=S1(=O)N=C(Nc2ccc(O)cc2)c2ccccc21,9.36

row,Compound,"hERG current change (%, negative = inhibition) at 1uM [%]"
1,CC(Sc1nnc(COc2ccccc2)n1Cc1ccccc1)C(=O)O (stereo not drawn),6.38
2,CCC(C)NC(=O)CN1C(=O)C(CC)Sc2ccccc21 (stereo not drawn),1.41
3,Cc1ccc([N+](=O)[O-])cc1NC(=S)NC(=O)C(C)(C)C,1.28
4,Cc1ccccc1CCN(C(=O)c1csnn1)C(C(=O)NC1CCCC1)c1ccncc1 (stereo not drawn),-5.39
5,NS(=O)(=O)c1ccc(CCNC(=O)c2ccc([N+](=O)[O-])cc2[N+](=O)[O-])cc1,5.72
6,CC(C)c1nc2oc3c(NCc4cccnc4)ncnc3c2c2c1CCC2,-6.78
7,CCC(C)[C@H](NC(=O)[C@@H]1Cc2ccccc2CN1C(=O)OC(C)(C)C)C(=O)NCC1CCC(C(=O)O)CC1 (stereo partly drawn),12.4
8,COCC(C)NC(=O)c1cc(S(=O)(=O)N2CCCCC2)ccc1N1CCOCC1 (stereo not drawn),10.1
9,CC(=O)Nc1cccc(C(=O)N/N=C/c2c[nH]c3ccccc23)c1,7.14
10,COc1ccc(/C=C2\Oc3cc(OCC(=O)N4CCC[C@H]4C(=O)O)ccc3C2=O)c(OC)c1,7.09
11,COc1ccc(-c2noc(CNS(=O)(=O)c3ccc(NC(C)=O)cc3)n2)cc1,11.1
12,O=C(NC(=S)Nc1ccc(F)cc1)C1CCCCC1,6.46
13,CC(=O)ON1C(C)(C)Cc2noc(N)c2C1(C)C,10.2
14,O=[N+]([O-])c1cnc2nc(-c3ccncc3)nn2c1[O-].[Na+],19.8
15,Cc1c(NC(=O)c2cc(-c3ccc(Cl)s3)nc3ccccc23)c(=O)n(-c2ccccc2)n1C,10
16,COc1ccc(COCCN2CCN(S(=O)(=O)c3ccc(C)cc3)CCC2=O)cc1,-0.783
17,Cn1c(CCNC(=O)c2ccco2)nc2cc(NC(=O)C3CCCCC3)ccc21,-7.41
18,Cn1cc(-c2ccccc2C(N)=O)c(=O)c2ccccc21,7.35
19,CN1C(=O)[C@H]2[C@@H](/C=C/c3ccccc3)N3C(=O)CN(Cc4ccccn4)C(=O)[C@@]3(C)[C@H]2C1=O,11.8
20,O=C(O)c1ccc(-c2nnc(-c3ccccc3)o2)cc1,15.5
21,CC(C)N1CCC(N2CCN(Cc3ccc(Oc4ncccn4)cc3)CC2CCO)CC1 (stereo not drawn),14
